Source: PubChem BioAssay AID1030 (National Center for Advancing Translational Sciences (NCATS), 2008)
Hit rate of the full screen: of about 220,000 compounds, about 16,000 (7.3%) were called active. Inconclusive results, whose numbers are uncertain, are shown with a selection of clear calls. Calls follow the shape of the dose curve; as a rule, active = well fitted inhibition curve with a large enough effect (not every such curve was filed as active); inconclusive = small, poorly fitted or top-dose-only effect, or another doubt; inactive = no such curve, though single readings can be large or run the other way. No potency is given beside an inconclusive call; the fits are too rough.

The compounds below were run against Aldehyde dehydrogenase 1A1 (Homo sapiens) (UniProt P00352) (assay: qHTS Assay for Inhibitors of Aldehyde Dehydrogenase 1 (ALDH1A1)). Settings: Purified ALDH1A1, NADH fluorescence, propionaldehyde substrate; series mostly up to 75.3 µM; activity, negative = inhibition: at the top concentration.
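For activity, negative = inhibition in this document: plate controls were no enzyme wells and a reference inhibitor.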
Potency is read from the fitted curve at half-maximal effect; tags tell the direction and shape of the fitted curve.

Sequence of UniProt P00352 (P00352 whole entry, looked up): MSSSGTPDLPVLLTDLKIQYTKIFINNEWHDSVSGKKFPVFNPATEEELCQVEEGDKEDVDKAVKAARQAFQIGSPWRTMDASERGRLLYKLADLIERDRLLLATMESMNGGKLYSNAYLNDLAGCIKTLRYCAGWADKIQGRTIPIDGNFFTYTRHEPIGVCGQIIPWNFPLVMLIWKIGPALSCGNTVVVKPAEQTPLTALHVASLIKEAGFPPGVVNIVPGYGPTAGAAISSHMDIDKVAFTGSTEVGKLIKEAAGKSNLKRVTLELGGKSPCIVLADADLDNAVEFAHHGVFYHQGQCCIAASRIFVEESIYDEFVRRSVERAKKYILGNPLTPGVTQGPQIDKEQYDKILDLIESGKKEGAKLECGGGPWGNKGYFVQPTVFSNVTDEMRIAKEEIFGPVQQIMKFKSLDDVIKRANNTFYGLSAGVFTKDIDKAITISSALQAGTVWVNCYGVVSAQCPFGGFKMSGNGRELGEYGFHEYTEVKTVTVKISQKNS

| Structure (SMILES) | activity, negative = inhibition | Potency |
| --- | --- | --- |
| CN(C)CCCN(C(=O)CCc1ccccc1)c1nc2ccc(Br)cc2s1 | inactive: -7.75% | – |
| O=C(Cc1coc(-c2ccc(F)cc2)n1)NC1CCCCC1 | inactive: 8.6% | – |
| CCOC(=O)C(C)n1nc(/C=C/c2ccc(OC)cc2)ccc1=O (configuration not stated) | – | inconclusive [inhibitor, single point] |
| Cc1cc(NC(=O)c2c(F)cccc2F)n(-c2nc3ccccc3[nH]2)n1 | – | inconclusive [inhibitor, single point] |
| COc1ccc(Cl)cc1NC(=S)NCc1ccccn1 | – | inconclusive [inhibitor, single point] |
| Cn1c(CS(=O)Cc2c(Cl)cccc2Cl)nnc1SCc1c(Cl)cccc1Cl (configuration not stated) | – | inconclusive [inhibitor, single point] |
| COc1cccc(C(=O)CSc2nnc(-c3cc(OC)c(OC)c(OC)c3)o2)c1 | – | inconclusive [inhibitor, single point] |
| CCn1c(N)c(C(=O)NCC2CCCO2)sc1=S (configuration not stated) | – | active: 8.91 µM |
| CCN(C(=O)CSc1nc(-c2ccccc2)c(-c2ccccc2)[nH]1)C1CCS(=O)(=O)C1 (configuration not stated) | – | inconclusive [inhibitor, partial curve] |
| COc1ccc(-c2nnn(CC(=O)N3CCOCC3)n2)cc1 | inactive: 5.82% | – |
| CCOC(=O)/C(=C/C=C1\Sc2ccccc2N1CC)C(C)=O | – | active: 12.6 µM |
| c1ccc(Nc2cccc(Nc3ccccc3)c2)cc1 | – | inconclusive [inhibitor, partial curve] |
| Cc1ccc(-c2nn(-c3ccccc3)cc2C(=O)N2CCN(c3ccccn3)CC2)cc1 | – | inconclusive [inhibitor, single point] |
| CC(C)C1Nc2ccc(C(=O)O)cc2C2C=CCC21 (configuration not stated) | – | inconclusive [inhibitor, single point] |
| Cc1ccc(-n2nnnc2CCl)cc1 | – | active: 22.4 µM |
| COc1ccc2cc3cc(C(=O)NCCN4CCN(c5ccccc5F)CC4)oc3nc2c1 | – | inconclusive [inhibitor, partial curve] |
| O=C(Nc1nncs1)c1ccccc1NS(=O)(=O)c1cccs1 | – | inconclusive [inhibitor, partial curve] |
| CCN1CCN(c2c(C(=O)c3ccc(OC)cc3)cnc3ccccc23)CC1 | – | active: 2.82 µM |
| O=C(Nc1ccc(-c2nc3ncccc3o2)cc1)c1ccc(Br)o1 | – | inconclusive [inhibitor, single point] |
| CCOCCCNC(=S)N1CCC(C(=O)c2ccc3c(c2)OCCO3)CC1 | – | inconclusive [inhibitor, partial curve] |
| CC(C)(C)NC(=O)c1cccc(NC(=O)c2cccc(O)c2)c1 | inactive: -4% | – |
| COc1ccccc1NC(=O)CSc1nnc(-c2ccco2)o1 | – | inconclusive [inhibitor, single point] |
| Cc1cc(NC(=O)CSc2nnc(-c3ccco3)n2Cc2ccco2)no1 | inactive: 7.42% | – |
| N#CCCN1CCN(S(=O)(=O)c2ccc(C#N)cc2)CC1 | inactive: -1.14% | – |

| Structure (SMILES) | activity, negative = inhibition | Potency |
| --- | --- | --- |
| Cc1csc(OCC(=O)Nc2ccc(C)c(C)c2)n1 | – | inconclusive [inhibitor, single point] |
| COc1ccccc1NC(=O)CN1CCC(c2nc3ccc(C)cc3[nH]2)CC1 | inactive: 2.73% | – |
| Cc1c(C(=O)OC(C)C(C)C[N+](C)(C)C)oc2ccccc12 (configuration not stated) | inactive: -10% | – |
| COc1cccc(-c2csc(N3CCN(C(=O)NC45CC6CC(CC(C6)C4)C5)CC3)n2)c1 | – | inconclusive [inhibitor, partial curve] |
| O=C(c1cccs1)N1CCC(c2nc(-c3ccc(S(=O)(=O)N4CCOCC4)cc3)no2)CC1 | – | inconclusive [inhibitor, single point] |
| CCOc1ccc(N(CC(=O)Nc2ccccc2C(=O)N2CCOCC2)S(=O)(=O)c2ccc(F)cc2)cc1 | inactive: 8.16% | – |
| COc1ccc(/C(C)=N/OCC(=O)N2CC3(C)CC2CC(C)(C)C3)cc1 (configuration not stated) | – | inconclusive [inhibitor, single point] |
| O=C(CCCSc1nnnn1-c1cccc2ccccc12)c1ccc(F)cc1 | – | active: 1.41 µM |
| Cc1ccccc1Cn1nc(C)c(NC(=O)c2cc3nc(-c4ccco4)cc(C(F)(F)F)n3n2)c1C | – | inconclusive [inhibitor, single point] |
| O=S(=O)(c1ccc2oc3ccccc3c2c1)N1CCOCC1 | inactive: -0.618% | – |
| O=c1c2ccccc2c2ccccc2c(=O)n1Cc1cccnc1 | inactive: 0.584% | – |
| O=[N+]([O-])c1cccc(S(=O)(=O)N/N=C/c2ccc(O)cc2)c1 | – | inconclusive [inhibitor, single point] |
| COc1ccc(Oc2ncc3nc(C)c(=O)n(Cc4cccs4)c3n2)cc1 | inactive: -9.39% | – |
| O=C(NC(=S)Nc1cccc(C(F)(F)F)c1)c1csnn1 | – | inconclusive [inhibitor, single point] |
| CCN1C(=O)CSc2ccc(C(=O)NCc3ccco3)cc21 | – | active: 12.6 µM |
| CCOC(=O)c1sc2nc(CC(=O)OC)nc(N3CCN(c4ccc(OC)cc4)CC3)c2c1C | – | active: 0.1 µM |
| COc1ccc(-c2nc(CS(=O)CC(=O)NCc3ccc4c(c3)OCO4)c(C)o2)cc1 (configuration not stated) | – | inconclusive [inhibitor, single point] |
| O=C(Nc1ccccc1)N1CCCC2(CCN(S(=O)(=O)c3ccccc3)CC2)C1 | – | inconclusive [inhibitor, single point] |
| COc1ccc(C/C(N)=N/OC(=O)c2cccc([N+](=O)[O-])c2)cc1 | – | inconclusive [inhibitor, single point] |
| Cc1nc2cc(NCc3nc4ccccc4n3Cc3ccccc3)ccc2n1C | – | inconclusive [inhibitor, single point] |
| O=[N+]([O-])c1ccc(-c2nc(-c3cccs3)c(-c3cccs3)[nH]2)cc1 | inactive: 1.32% | – |
| CCOc1cc(-c2ccc3c(c2)OCO3)cc(=O)c2c(C)oc(C)c12 | – | inconclusive [inhibitor, single point] |
| Cc1ccc(-c2nc(CSCC(=O)N3CCOCC3)c(C)o2)cc1 | – | inconclusive [inhibitor, single point] |
